Laboratory results as given in patent US6545128 (BURNHAM INSTITUTE, dated 2003).

Target: T1, 35S-labeled in vitro translated HA-tagged BI-2 (human, UniProt Q9NZS9 1-450, 35S-labeled methionine (in vitro translation))
T1 construct: Made by TNT rabbit reticulocyte in vitro transcription/translation; also called HA-BI-2; not shown: three copies of the HA tag at the N-terminus (vector pSN503)
T1 sequence: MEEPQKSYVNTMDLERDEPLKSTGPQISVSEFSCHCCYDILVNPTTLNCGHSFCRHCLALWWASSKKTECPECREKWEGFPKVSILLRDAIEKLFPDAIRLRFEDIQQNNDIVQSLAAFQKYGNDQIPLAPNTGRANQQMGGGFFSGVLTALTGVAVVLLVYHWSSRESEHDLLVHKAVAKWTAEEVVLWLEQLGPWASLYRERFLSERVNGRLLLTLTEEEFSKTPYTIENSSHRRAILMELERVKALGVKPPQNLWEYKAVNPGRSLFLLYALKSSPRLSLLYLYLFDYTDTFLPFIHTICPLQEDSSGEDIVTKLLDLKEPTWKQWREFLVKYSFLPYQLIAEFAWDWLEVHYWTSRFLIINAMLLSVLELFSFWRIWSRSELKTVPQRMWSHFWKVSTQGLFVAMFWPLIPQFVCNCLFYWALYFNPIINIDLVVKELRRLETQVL
Experiment: GST pull-down: about 5 ug GST protein on glutathione SEPHAROSE, 35S-labeled in vitro translated HA-BI-2, SDS-PAGE and autoradiography
Description: Approximately 5 µg of the following fusion proteins, including GST control, GST-CD40 cytosolic domain, GST-Bcl-2, GST-Bax or GST-BI-2, were immobilized on glutathione SEPHAROSE, then 8 µl of ^35S-labeled in vitro translated HA-tagged BI-2 in binding buffer was added. After incubation at 4° C. for 2 hr, the beads were washed 5× with binding buffer and the associated proteins were eluted in Laemli sample buffer and analyzed by SDS-PAGE (10% gel). As a control, ^35S-labeled BI-2 was loaded directly into the gel, using one-quarter the amount employed for the binding experiments. Following electrophoresis, the gels were dried and exposed to X-ray film.

B1: GST control (other)
chain: not shown
notes: Control, immobilized on glutathione SEPHAROSE
binding result: no binding
